# According to publication PMC12136788:
# This is one part of the list.
# T1: UNK ZnF1-3 (human, UniProt Q9C0B0 31-174)
# T1 sequence: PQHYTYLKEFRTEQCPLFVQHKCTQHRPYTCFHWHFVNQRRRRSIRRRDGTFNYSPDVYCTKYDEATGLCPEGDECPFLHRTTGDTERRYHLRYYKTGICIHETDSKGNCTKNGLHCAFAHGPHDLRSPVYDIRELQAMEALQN
# B1: chr6:86333760:86333761:-_ENSG00000135316_ENST00000355238|hu_mus|hu_hu_hu_mus_True|28_108 (ssRNA)
# RNA: GGGAGUUCUACAGUCCGACGAUCUUCUUCAAGAAUCUGCUCCUUGGUUUUACUCUUAGGAAUCGAGCCCACAAAAAGCCUAUUGUUGGCAACUGAGAUGCAGACACCAAUAUGUUUCCCGGAACGAAUUUCAUGAUUAUUAUACAACAGAGGAUUGAGCAUCA
# B2: chr4:83978119:83978120:+_ENSG00000138663_ENST00000264389|hu_mus|FALSE|FALSE (ssRNA)
# RNA: GGGAGUUCUACAGUCCGACGAUCGUUUAUGUAAGCCUCGGCCUGGACGGGAUCGUCAUCCUCCAGGUAUAGCCUUGCAAUCUUCAGGUAAGUCUCCAGCUUAUAAUCUACGUUGUACUGUUUUUGUCCUGUUUCCAGAGGAAUCAACAGAGGAUUGAGCAUCA
# B3: chrX:106345308:106345309:+_ENSMUSG00000031246_ENSMUST00000033598|mus_hu|FALSE|FALSE (ssRNA)
# RNA: GGGAGUUCUACAGUCCGACGAUCUUCUCUCAUCCACUUCCGAUUCUCUUCAUUGGCUGCAAUAUCUUUUUCUUCAAAUCCUAUUUUGUUGGCUUCUAGGAAACCAAGCACAUCUUGUUGUUUCUUCUUAAUCGCUGUAGAGCCCAACAGAGGAUUGAGCAUCA
# B4: chr7:141450121:141450122:+_ENSG00000106028_ENST00000265304|hu_mus|hu_hu_hu_mus_True|98_98 (ssRNA)
# RNA: GGGAGUUCUACAGUCCGACGAUCUCAUCCGUUCUAUUCCUUCUCUUUUGUCUGGUCACUCAGAAAUAUAAUGUUAUCAGCUAUGAUUGUUGUUGCUUGCCGCCUCACAUUGUUUUUAUCCAUGUACUCGCCAUAGUCCACUUUCAACAGAGGAUUGAGCAUCA
# B5: chr11:102337468:102337469:-_ENSMUSG00000034621_ENSMUST00000143842|mus_mus|FALSE|FALSE (ssRNA)
# RNA: GGGAGUUCUACAGUCCGACGAUCAAGGAAAACUACCUCCAGGAUGGCAGAGGCGGCCAGAGCAUGGCUAGAUCUACAACCUAACGAGAAGCAGCACAAAAAUGUUAAUACUGUUUUAUUUAAAUAUUUACACGGGCUGAAAGCCAACAGAGGAUUGAGCAUCA
# B6: chr3:41268740:41268741:+_ENSG00000168036_ENST00000349496|perfect_dup|motif|central (ssRNA)
# RNA: GGGAGUUCUACAGUCCGACGAUCCACUCUGCUUGUGGUCCACAGUAGUUUUUCGUAAGUAUAGGUCCUCAUUAUAUUUACGGAAGCUUGGGGUCCACCACUAGCCAGUAUGAUGAGCUUGCUUUCUUGGUUGCCAUAAGCUAACAACAGAGGAUUGAGCAUCA
# B7: 18138343_18138463_2469_3pUTR_ENSMUSG00000026740_ENSMUST00000166495|mouse|control|control (ssRNA)
# RNA: GGGAGUUCUACAGUCCGACGAUCUUAGAUCCAUGUAUUCAUGUGCAUGUGUCUAUGUGGGCUCGGAUGUGUGUGCUGUACCACAAUAUGAAUGCAGAGGUCAGAGGACAGCUCCUGUGAACAUGUGCUUGCUGGAGAGUGAGUCAACAGAGGAUUGAGCAUCA
# B8: chr2:73747962:73747963:-_ENSMUSG00000018770_ENSMUST00000018914|mus_hu|FALSE|FALSE (ssRNA)
# RNA: GGGAGUUCUACAGUCCGACGAUCGCCCUCUCCAGUCCUACUAGCCUCUGGUCGAGAUAACACUGAUGCAGAAAUUGGUCUGUAUGCAACUCUGGAUCCAGCUCGGAUCAGAGAGGGGGUGCAGGCGAGCUUGGCGCAGGCGAACAACAGAGGAUUGAGCAUCA
# B9: chr4:99997526:99997527:-_ENSG00000197894_ENST00000296412|hu_mus|FALSE|FALSE (ssRNA)
# RNA: GGGAGUUCUACAGUCCGACGAUCGGAGUAAUCCACGCCCCCAUCUGUCAUCUCAACGAGGACUUCCUGGAUGGAUUUACUGAAGUCUUGGGGGCUAAUACAUUCAGAGGCUCCAAAUUCUUUGGCCUUUGCGAAUUUAUCUUUCAACAGAGGAUUGAGCAUCA
# B10: chrX:70927055:70927056:+_ENSMUSG00000019558_ENSMUST00000114465|mus_mus|motif|central (ssRNA)
# RNA: GGGAGUUCUACAGUCCGACGAUCAGAGGCUGUGUUUACUUCUGGUAUUCACCUUCACUAAGGGAUAAGAGAUCUACAGACCGGCACAUACACACACAUACACACACACACACACACACACACACAGAGGGGGGUGUGCACUCACAACAGAGGAUUGAGCAUCA
# B11: chr2:153237265:153237266:-_ENSMUSG00000061411_ENSMUST00000109784|mus_mus|mus_mus_mus_hu_False|28_108 (ssRNA)
# RNA: GGGAGUUCUACAGUCCGACGAUCAAAAAAAAGAAAAAAAAAGUGUCCUUGUGCCCAAAGUCUCAGGUGCUUGGAGUGUGGCUAGAAACAGCUCUUUUGGAUCCCACCUCUUUCAGAAACAAAAUGUACCAACUGGUGAGGCAGCAACAGAGGAUUGAGCAUCA
# B12: 84551238_84551358_529_5pUTR_ENSMUSG00000034075_ENSMUST00000035840|mouse|control|control (ssRNA)
# RNA: GGGAGUUCUACAGUCCGACGAUCGUGAUUUAAUUUUAUUUAUGUCUCUCUUGAUGGACAAAGUUGGAUAACAGCUGUUACAGGGUUGAGUUGUAAAUCCUUUUCUUUGAAUGGGGAGAAAAAAACAGACAGCAGUAUUGCCUGCAACAGAGGAUUGAGCAUCA
# B13: 44922105_44922225_2795_3pUTR_ENSG00000146676_ENST00000395699|human|control|control (ssRNA)
# RNA: GGGAGUUCUACAGUCCGACGAUCUCUAUUUUUUUAAAAAAGCCUAAUUUUAUGUACACAAUUAUUUCCCGCCCUCUCAGCCACAAAUACAUGAAAACCUUUUUGUAUAUUACUCAUUUCCCAAUAAAUACAAAAAGAUUGUAUCAACAGAGGAUUGAGCAUCA
# B14: chr13:81889239:81889240:+_ENSMUSG00000051098_ENSMUST00000057598|mus_mus|FALSE|FALSE (ssRNA)
# RNA: GGGAGUUCUACAGUCCGACGAUCCAUGGCAAAAGUAGACACUUUGUGGCAUAUCCCAGCUUUUGAAAUAUAGUUAGAAGCUAAGCGAAACAGCCUUUCGGCACCAAAGGUAUUGAAGUGCCCAGGAAGCACCUUCUCCACAAGCAACAGAGGAUUGAGCAUCA
# B15: chr3:98531265:98531266:-_ENSG00000057019_ENST00000326840|hu_hu|motif|central (ssRNA)
# RNA: GGGAGUUCUACAGUCCGACGAUCUCCGAGCAGCUCCAUUUUCAUGGCAAUUUUCUGCUGCCAUUGGGUAGGAUUCACUCGGAUAAAACGUGCAAUAAUUGGUGGCAAAAAGUUAUUACGCACAUCCUGGUGAUAAUCUUUGUUCAACAGAGGAUUGAGCAUCA
# B16: 36543091_36549158_1918_CDS_ENSMUSG00000032116_ENSMUST00000120381|mouse|control|control (ssRNA)
# RNA: GGGAGUUCUACAGUCCGACGAUCUCCAAUCCGGACCAUCCAAAGAAACUUGUUGAUAUCAUCCGAAGAAUACCCAGUAAGGCCUCCAAAAAUGACAAGCACAUAGCUGACAUCAAGCUCCCUCAUGAUUUCAUAGGCUUUUUCCAACAGAGGAUUGAGCAUCA
# B17: 26721622_26723578_1361_CDS_ENSMUSG00000024921_ENSMUST00000025862|mouse|control|control (ssRNA)
# RNA: GGGAGUUCUACAGUCCGACGAUCUGCCUCACGCAGGGUCUGGCGCUUGCUCCGCUUAUAUGCUUUGGAGUUGAGGGCCGUCUCCAGGGUGGUGUCCCUCCGCAUGCAGGCCACCACCUCCUGUCUCAGCUGACGUUGGAAGUUCAACAGAGGAUUGAGCAUCA
# B18: chr6:40197388:40197389:+_ENSMUSG00000057716_ENSMUST00000061740|mus_mus|mus_mus_mus_hu_False|28_78 (ssRNA)
# RNA: GGGAGUUCUACAGUCCGACGAUCGAGACACUGGGGUGGAUUUAUUCCACCUCUGUUUGCUAGCCUCCCACUAAGACUGUUAUUUUGGGAUUCAUGGCCUUGAAUAUCAAGAGGAAAAGGAAGAGGAUGGAAAGAGUCAAGAGUCAACAGAGGAUUGAGCAUCA
# B19: chr11:120326911:120326912:-_ENSMUSG00000057594_ENSMUST00000124970|mus_mus|FALSE|FALSE (ssRNA)
# RNA: GGGAGUUCUACAGUCCGACGAUCAUCACUUGCAGAUACACUGGGUGGCCUGCUCCUAUCAAACACCUCAGGCUCUCAUGCAUUUGCCUCCUAGGCACUGGGUGGGGUCAGCCAUACUUCUCCAUCUUGCUGUCAACUGCUGUGCAACAGAGGAUUGAGCAUCA
# B20: chr4:95690885:95690886:+_ENSMUSG00000028572_ENSMUST00000156910|mus_mus|mus_mus_mus_hu_False|1_78 (ssRNA)
# RNA: GGGAGUUCUACAGUCCGACGAUCUUUAGAAAAUGUUAAAUACCAUGCUAAAAUAUUGUAAUUUUAAUAUUUUAUUUUACCAGAAGUCACAGGCAAGCAGACACUACAAGAAUAUAUGAAAAUGAAACUCAACAAUAAAAUGUACAACAGAGGAUUGAGCAUCA
# B21: chr3:160150142:160150143:+_ENSG00000113810_ENST00000344722|hu_hu|FALSE|FALSE (ssRNA)
# RNA: GGGAGUUCUACAGUCCGACGAUCAAAACCUGCCAUAAAUUCAUUAAGCCUUUGUUUCCGAAGAUCUUCAUAUGCCUGUCUAAAACUGUCUCUUUCAUAAGUAAUUUUGUCCAAUUCUGCUACCCGUUGCAAAUACAAUUCUUCCAACAGAGGAUUGAGCAUCA
# B22: chr22:32879901:32879902:+_ENSG00000100225_ENST00000397426|hu_mus|hu_hu_hu_mus_False|8_98 (ssRNA)
# RNA: GGGAGUUCUACAGUCCGACGAUCCUCUUCCAUACUCGCAUUAUCUUGAAUUGACUCAGCUUCAACAUUUUGACUAGGCCCUUCCAUACUGUCAUCAGUCCAGGCAUCAAAUGGGGUGGCCUGUCCUUGGAAUGAAUCAGUCCCCAACAGAGGAUUGAGCAUCA
# Target: T1, UNK ZnF1-3
# Assay: nsRBNS (natural sequence RNA bind-n-seq); RBNS binding buffer (assumed for nsRBNS): 25 mM Tris pH 7.5, 150 mM KCl, 3 mM MgCl2, 0.01% Triton X-100, 500 ug/ml BSA, 20 U/ml SUPERase-In, 4 C; UNK is unkempt and MSI1 is Musashi-1; names of the RNAs are library labels; protein concentration not given here; high values mean tight binding
row,Binder,binding signal
1,B1,1.08 enrichment R
2,B2,0.519 enrichment R
3,B3,0.412 enrichment R
4,B4,0.411 enrichment R
5,B5,2.59 enrichment R
6,B6,1.29 enrichment R
7,B7,1.27 enrichment R
8,B8,0.811 enrichment R
9,B9,0.658 enrichment R
10,B10,0.839 enrichment R
11,B11,2.05 enrichment R
12,B12,1.43 enrichment R
13,B13,1.76 enrichment R
14,B14,1.22 enrichment R
15,B15,0.388 enrichment R
16,B16,1.27 enrichment R
17,B17,0.667 enrichment R
18,B18,1.32 enrichment R
19,B19,0.823 enrichment R
20,B20,1.83 enrichment R
21,B21,1.43 enrichment R
22,B22,1.14 enrichment R
